This is one part of the list. Rule as the data show it: active = 3.2 or more and inactive = the rest. Only a few entries rise above the background.
Legend:
Assay in all cases: enrichment score (SH2-bound / input frequency) (ratio); bacterial display of known human phosphotyrosine sites (pTyr-Var adds point mutants) read by sequencing; higher = stronger binding; tyrosines were phosphorylated by kinases first
Details in all cases: peptide library: Human pTyr
[1] = target: SHP2 C-SH2 domain E139D
[2] = target: SHP2 C-SH2 domain wild-type
[3] = target: SHP2 N-SH2 domain L43F
[4] = target: SHP2 N-SH2 domain T42A
[5] = target: SHP2 N-SH2 domain T52S
[6] = target: SHP2 N-SH2 domain wild-type

Measured: enrichment score
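Also: displayed peptides selected on beads carrying the immobilized SH2 domain, with library peptides lacking any tyrosine serving as negative controls.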

B1: KLC4_HUMAN_449_YA (peptide)
chain: GGTPAAEYGGWAKAC
inactive: [1] 0.62 | [2] 0.599 | [3] 0.622 | [4] 0.637 | [5] 0.685 | [6] 0.601

B2: KLC4_HUMAN_449 (peptide)
chain: GGTPYAEYGGWYKAC
inactive: [1] 1.42 | [2] 1.09 | [3] 1.21 | [4] 1.04 | [5] 1.26 | [6] 1.36

B3: KSYK_HUMAN_28 (peptide)
chain: TREEAEDYLVQGGMS
inactive: [1] 0.764 | [2] 0.543 | [3] 0.655 | [4] 0.657 | [5] 0.805 | [6] 0.636

B4: LAX1_HUMAN_294 (peptide)
chain: AFQCCRDYENVPAAD
inactive: [1] 0.766 | [2] 0.814 | [3] 0.739 | [4] 0.852 | [5] 0.883 | [6] 0.769

B5: KPCD_HUMAN_64 (peptide)
chain: STFDAHIYEGRVIQI
inactive: [1] 0.621 | [2] 0.617 | [3] 0.73 | [4] 0.633 | [5] 0.635 | [6] 0.613

B6: LAIR1_HUMAN_251 (peptide)
chain: GSSQEVTYAQLDHWA
active: [2] 4.32 | [3] 10.8 | [4] 12.2 | [5] 6.06
inactive: [1] 2.16 | [6] 2.73

B7: KPCD_HUMAN_155 (peptide)
chain: IKQAKIHYIKNHEFI
inactive: [1] 1.3 | [2] 1.92 | [3] 2.18 | [4] 1.43 | [5] 1.35 | [6] 2.02

B8: KIT_HUMAN_823 (peptide)
chain: DIKNDSNYVVKGNAR
inactive: [1] 0.821 | [2] 0.866 | [3] 0.855 | [4] 0.704 | [5] 0.784 | [6] 0.756

B9: KPCD1_HUMAN_463 (peptide)
chain: NDTGSRYYKEIPLSE
inactive: [1] 0.732 | [2] 0.697 | [3] 0.836 | [4] 0.945 | [5] 0.853 | [6] 0.838

B10: LAT2_HUMAN_119 (peptide)
chain: DPIAMEYYNWGRFSK
inactive: [1] 1.54 | [2] 1.61 | [3] 1.63 | [4] 1.47 | [5] 1.95 | [6] 2.07

B11: LAT_HUMAN_161_YA (peptide)
chain: DDAHNPGYLVVLPDS
inactive: [1] 0.689 | [2] 0.607 | [3] 0.747 | [4] 0.733 | [5] 0.73 | [6] 0.78

B12: LAT_HUMAN_161 (peptide)
chain: DDYHNPGYLVVLPDS
inactive: [1] 0.839 | [2] 0.584 | [3] 0.696 | [4] 0.666 | [5] 0.658 | [6] 0.738

B13: ALKB5_HUMAN_71 (peptide)
chain: SDPERSDYEEQQLQK
inactive: [1] 0.905 | [2] 0.911 | [3] 1.15 | [4] 0.886 | [5] 1.32 | [6] 1.43

B14: LCAP_HUMAN_70 (peptide)
chain: MEEDEEDYESSAKLL
inactive: [1] 1.37 | [2] 1.32 | [3] 1.08 | [4] 1.14 | [5] 1.46 | [6] 1.47

B15: KLH22_HUMAN_466 (peptide)
chain: YLKETHCYDPGSNTW
inactive: [1] 1.23 | [2] 1.02 | [3] 1.13 | [4] 1.18 | [5] 1.25 | [6] 1.27

B16: KPCD_HUMAN_313 (peptide)
chain: SSEPVGIYQGFEKKT
inactive: [1] 0.778 | [2] 0.756 | [3] 0.82 | [4] 0.506 | [5] 0.738 | [6] 0.791

B17: LCK_HUMAN_192 (peptide)
chain: NLDNGGFYISPRITF
inactive: [1] 1.1 | [2] 1 | [3] 0.925 | [4] 0.857 | [5] 1.04 | [6] 0.842

B18: KSYK_HUMAN_131 (peptide)
chain: KENLIREYVKQTWNL
inactive: [1] 1.09 | [2] 1.16 | [3] 1.07 | [4] 1.23 | [5] 1.15 | [6] 1.35

B19: LAT2_HUMAN_119_YA (peptide)
chain: DPIAMEAYNWGRFSK
inactive: [1] 0.64 | [2] 0.831 | [3] 0.678 | [4] 0.739 | [5] 0.859 | [6] 0.925

B20: KSYK_HUMAN_364 (peptide)
chain: EIRPKEVYLDRKLLT
inactive: [1] 0.651 | [2] 0.553 | [3] 0.704 | [4] 0.82 | [5] 0.748 | [6] 0.802

B21: KPCA_HUMAN_658 (peptide)
chain: SDFEGFSYVNPQFVH
inactive: [1] 0.783 | [2] 0.66 | [3] 0.834 | [4] 0.842 | [5] 0.842 | [6] 0.799

B22: KSYK_HUMAN_546 (peptide)
chain: YAPECINYYKFSSKS
inactive: [1] 1.7 | [2] 1.63 | [3] 1.14 | [4] 1.58 | [5] 2.34 | [6] 1.91

B23: KSYK_HUMAN_352_YA (peptide)
chain: TEVAESPYADPEEIR
inactive: [1] 0.961 | [2] 0.83 | [3] 0.831 | [4] 1.04 | [5] 1.01 | [6] 0.92

B24: KLH22_HUMAN_466_YA (peptide)
chain: ALKETHCYDPGSNTW
inactive: [1] 1.13 | [2] 0.953 | [3] 1.01 | [4] 1.02 | [5] 1.12 | [6] 1.27

B25: KSYK_HUMAN_629_YA (peptide)
chain: VELRLRNYAADVVNG
inactive: [1] 1.18 | [2] 1.02 | [3] 1.12 | [4] 1 | [5] 1.29 | [6] 1.32

B26: LAX1_HUMAN_193 (peptide)
chain: SSEDSHDYVNVPTAE
inactive: [1] 1.3 | [2] 1.23 | [3] 1.38 | [4] 1.27 | [5] 1.47 | [6] 1.71

B27: KPCT_HUMAN_90 (peptide)
chain: SETTVELYSLAERCR
inactive: [1] 0.984 | [2] 0.784 | [3] 0.83 | [4] 0.941 | [5] 1.04 | [6] 1.12

B28: ANDR_HUMAN_309_YA (peptide)
chain: STEDTAEYSPFKGGA
inactive: [1] 0.717 | [2] 0.564 | [3] 0.705 | [4] 0.604 | [5] 0.703 | [6] 0.807

B29: LAT_HUMAN_110 (peptide)
chain: GANSVASYENEGASG
inactive: [1] 0.623 | [2] 0.618 | [3] 0.652 | [4] 0.594 | [5] 0.688 | [6] 0.727

B30: KPYM_HUMAN_148 (peptide)
chain: KITLDNAYMEKCDEN
inactive: [1] 1.06 | [2] 1.03 | [3] 1 | [4] 0.993 | [5] 1.05 | [6] 0.832

B31: LCP2_HUMAN_113 (peptide)
chain: SSFEEDDYESPNDDQ
inactive: [1] 1.11 | [2] 1.12 | [3] 1.8 | [4] 1.1 | [5] 1.19 | [6] 1.25

B32: LAT_HUMAN_255 (peptide)
chain: EEEGAPDYENLQELN
inactive: [1] 1.2 | [2] 0.801 | [3] 1.02 | [4] 0.988 | [5] 1.04 | [6] 1.06

B33: LAT_HUMAN_200 (peptide)
chain: SMESIDDYVNVPESG
inactive: [1] 0.694 | [2] 0.88 | [3] 0.711 | [4] 0.923 | [5] 0.876 | [6] 0.811

B34: LAT2_HUMAN_118_YA (peptide)
chain: IDPIAMEYANWGRFS
inactive: [1] 1.11 | [2] 0.753 | [3] 0.72 | [4] 0.994 | [5] 1.22 | [6] 0.888

B35: KSYK_HUMAN_507 (peptide)
chain: VLLVTQHYAKISDFG
inactive: [1] 2.4 | [3] 2.23 | [4] 2.1 | [5] 2.51 | [6] 2.6
active: [2] 3.31

B36: LCP2_HUMAN_23_YA (peptide)
chain: DPDSLADYFKKLNAK
inactive: [1] 1.06 | [2] 0.789 | [3] 1.23 | [4] 0.787 | [5] 0.967 | [6] 1.29

From the supplement of paper PMC10369915
